Reference: patent publication US12104176B2, “Efficient cell culture system for hepatitis C virus genotype 6A” (priority 2018, dated 2024)

System: HK2 full-length virus

CC(C)OC(=O)[C@H](C)N[P@](=O)(OC[C@H]1O[C@@H](n2ccc(=O)[nH]c2=O)[C@](C)(F)[C@@H]1O)Oc1ccccc1 [Sofosbuvir]
outcome of long-term treatment (HK2, sofosbuvir 1140 nM): failed to suppress the established infection | day after treatment initiation from which culture was HCV antigens negative (HK2, sofosbuvir 2280 nM, FIG. 9B): 7 days
